# The whole screen tested about 3,200 compounds, of which about 75 (2%) showed an effect of 50% or more. The list shows a part of the results.
# Tested on: T1, S. aureus MSSA476
# T1 construct: MSSA476
# Set-up: species or system S. aureus MSSA476 (TSB) or V. cholerae SAD30 (LB); 384-well bacterial growth screen at 25 uM, OD600 relative to DMSO control
# Conditions: relative growth, OD600, TSB; 25 µM; inhibitor
row,Compound,% of control remaining [%]
1,"C=CC(=O)Nc1cc(NC(=O)c2cnn(-c3ccccc3)c2)ccc1F [2-G11, N-[4-fluoro-3-(prop-2-enamido)phenyl]-1-phenyl-1H-pyrazole-4-carboxamide]",100.609
2,"N#CC(=Cc1ccco1)C(=O)Nc1cc2c(cc1Cl)NC(=O)CO2 [9-D20, N-(6-chloro-3-oxo-3,4-dihydro-2H-1,4-benzoxazin-7-yl)-2-cyano-3-(furan-2-yl)prop-2-enamide]",81.1985
3,"C=CC(=O)N(C)Cc1ncc(C(F)(F)F)n1C [2-D19, N-methyl-N-{[1-methyl-5-(trifluoromethyl)-1H-imidazol-2-yl]methyl}prop-2-enamide]",107.224
4,"C=CC(=O)N1CCOC(Cn2cncn2)C1 (stereo not drawn) [1-F20, 1-{2-[(1H-1,2,4-triazol-1-yl)methyl]morpholin-4-yl}prop-2-en-1-one]",143.824
5,"N#CCSc1ccccc1NC(=O)CCl [6-C11, 2-chloro-N-{2-[(cyanomethyl)sulfanyl]phenyl}acetamide]",89.122
6,"COc1ccc(NC(C)=O)cc1NC(=O)C(C)Cl (stereo not drawn) [4-M08, 2-chloro-N-(5-acetamido-2-methoxyphenyl)propanamide]",91.4721
7,"C=CC(=O)NCCCn1cnc2ccccc21 [2-P11, N-[3-(1H-1,3-benzodiazol-1-yl)propyl]prop-2-enamide]",92.6023
8,"C=CC(=O)N1C2C=C(c3nccn3C)CC1CC2 (stereo not drawn) [3-G03, 1-[3-(1-methyl-1H-imidazol-2-yl)-8-azabicyclo[3.2.1]oct-2-en-8-yl]prop-2-en-1-one]",83.239
9,"O=C(CCl)C1(F)CCCCC1 [10-K19, 2-chloro-1-(1-fluorocyclohexyl)ethan-1-one]",143.75
10,"CC(C)NC(=O)C(C#N)=Cc1cccc(Cl)c1Cl [9-C07, 2-cyano-3-(2,3-dichlorophenyl)-N-(propan-2-yl)prop-2-enamide]",109.963
11,"CC(Cl)C(=O)N1CCN(c2nccc3sccc23)CC1 (stereo not drawn) [7-G10, 2-chloro-1-(4-{thieno[3,2-c]pyridin-4-yl}piperazin-1-yl)propan-1-one]",107.378
12,"Cc1cc(C(=O)CCl)c(C)n1Cc1ccccc1 [10-M14, 1-(1-benzyl-2,5-dimethyl-1H-pyrrol-3-yl)-2-chloroethan-1-one]",143.438
13,"CC(C)C1C(=O)Nc2ccc(Cl)cc2N1C(=O)CCl (stereo not drawn) [5-C11, 6-chloro-4-(2-chloroacetyl)-3-(propan-2-yl)-1,2,3,4-tetrahydroquinoxalin-2-one]",101.639
14,"C=CC(=O)N(CC)CC(=O)N1CCCC1c1cn(C)nc1C (stereo not drawn) [2-N12, N-{2-[2-(1,3-dimethyl-1H-pyrazol-4-yl)pyrrolidin-1-yl]-2-oxoethyl}-N-ethylprop-2-enamide]",110.009
15,"O=C(CCl)N(Cc1ccsc1)C1CC1 [5-N18, 2-chloro-N-cyclopropyl-N-[(thiophen-3-yl)methyl]acetamide]",111.84
16,"C=CC(=O)NCc1ccc(C(=O)N2CCC(C(C)(C)O)CC2)cc1 [2-J20, N-({4-[4-(2-hydroxypropan-2-yl)piperidine-1-carbonyl]phenyl}methyl)prop-2-enamide]",115.231
17,"CC(Cl)C(=O)N1CCn2c(C#N)ccc2C1C (stereo not drawn) [6-F22, 2-(2-chloropropanoyl)-1-methyl-1H,2H,3H,4H-pyrrolo[1,2-a]pyrazine-6-carbonitrile]",99.0244
18,"CC(C)c1nc(C=C(C#N)C(=O)NC2CCCCC2)c2ccccn12 [9-B15, 2-cyano-N-cyclohexyl-3-[3-(propan-2-yl)imidazo[1,5-a]pyridin-1-yl]prop-2-enamide]",86.5918
19,"C=CC(=O)N(CC)CC(=O)N1CCc2c(ncn2CC)C1 [2-H08, N-ethyl-N-(2-{1-ethyl-1H,4H,5H,6H,7H-imidazo[4,5-c]pyridin-5-yl}-2-oxoethyl)prop-2-enamide]",106.876
20,"CC(C)OC(=O)c1c(NC(=O)CCl)sc2c1CCCC2 [4-E21, propan-2-yl 2-(2-chloroacetamido)-4,5,6,7-tetrahydro-1-benzothiophene-3-carboxylate]",152.072
21,"Cc1nn(-c2ccccc2)c(Cl)c1C=C(C#N)C(=O)NC(C)C [9-J17, 3-(5-chloro-3-methyl-1-phenyl-1H-pyrazol-4-yl)-2-cyano-N-(propan-2-yl)prop-2-enamide]",77.9026
22,"N#CC(=Cc1ccc(OC(F)F)cc1)C(=O)N1CCCc2ccccc21 [8-E03, 3-[4-(difluoromethoxy)phenyl]-2-(1,2,3,4-tetrahydroquinoline-1-carbonyl)prop-2-enenitrile]",164.315
23,"CCOc1cc(C=C(C#N)C(=O)Nc2nccs2)cc(Cl)c1O [9-K22, 3-(3-chloro-5-ethoxy-4-hydroxyphenyl)-2-cyano-N-(1,3-thiazol-2-yl)prop-2-enamide]",54.2322
24,"COc1ccc(NC(=O)C(C#N)=Cc2cccc(O)c2)cc1Cl [9-C08, N-(3-chloro-4-methoxyphenyl)-2-cyano-3-(3-hydroxyphenyl)prop-2-enamide]",97.3783
25,"C=CC(=O)Nc1cccc(S(=O)(=O)C2CCOCC2)c1 [3-M08, N-[3-(oxane-4-sulfonyl)phenyl]prop-2-enamide]",105.529
26,"CC(NC(=O)CCl)c1cn(-c2ccccc2)nn1 (stereo not drawn) [5-O06, 2-chloro-N-[1-(1-phenyl-1H-1,2,3-triazol-4-yl)ethyl]acetamide]",91.0747
27,"Cc1ccccc1NC(=O)C(C#N)=Cc1cc2c(cc1[N+](=O)[O-])OCO2 [9-P11, 2-cyano-N-(2-methylphenyl)-3-(6-nitro-1,3-dioxaindan-5-yl)prop-2-enamide]",108.165
